In all, about 230,000 compounds went through this assay and about 3,600 (1.6%) were called active. Inconclusive means that the source gave no clear call. Such entries were picked first, then a sample of the others. Calls come from the whole dose curve; as a rule, active = well fitted inhibition curve with a large enough effect (not every such curve was filed as active); inconclusive = small, poorly fitted or top-dose-only effect, or another doubt; inactive = no such curve, though single readings can be large or run the other way. A potency beside an inconclusive call is a rough fit, not a confirmed value.
target: Lysine-specific demethylase 4E (Homo sapiens) (UniProt B2RXH2); assay: qHTS Assay for Inhibitors of Human Jumonji Domain Containing 2E (JMJD2E); conditions: JMJD2E catalytic domain, FDH-coupled NADH fluorescence (FDH is formaldehyde dehydrogenase); series mostly up to 57.1 µM; activity change, negative = inhibition: at the top concentration
Note: nearly all actives have a fitted effect of over 50% in size.
Potency is the fitted concentration of half-maximal effect; tags give direction and shape of the fitted curve.
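Throughout, for activity change, negative = inhibition: 0% = wells with enzyme and -100% = buffer wells without enzyme.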

Chain of UniProt B2RXH2 (B2RXH2 whole entry, looked up, the tested form may be a part): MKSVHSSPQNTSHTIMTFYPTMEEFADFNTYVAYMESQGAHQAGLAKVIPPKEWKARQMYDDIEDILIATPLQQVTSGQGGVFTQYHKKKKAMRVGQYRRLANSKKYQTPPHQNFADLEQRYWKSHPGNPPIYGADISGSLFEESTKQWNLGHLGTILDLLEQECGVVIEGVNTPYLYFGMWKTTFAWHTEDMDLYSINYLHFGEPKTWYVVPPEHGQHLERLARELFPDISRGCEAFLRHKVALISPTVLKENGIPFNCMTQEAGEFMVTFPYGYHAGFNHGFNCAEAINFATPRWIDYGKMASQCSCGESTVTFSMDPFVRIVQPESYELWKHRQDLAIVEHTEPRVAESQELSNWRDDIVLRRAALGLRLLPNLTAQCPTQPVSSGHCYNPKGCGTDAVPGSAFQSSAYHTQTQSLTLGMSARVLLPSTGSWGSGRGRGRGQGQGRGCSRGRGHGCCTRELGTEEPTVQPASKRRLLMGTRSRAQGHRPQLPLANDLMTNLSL

| Compound | activity change, negative = inhibition | Potency |
| --- | --- | --- |
| Cc1sc2nc(N3CCOCC3)[nH]c(=O)c2c1-c1ccccc1 | inactive: 2.38% | – |
| O=C(O)c1cccc(NC(=S)N/N=C/c2ccccn2)c1 | – | inconclusive: 28.2 µM [inhibitor, single point] |
| COC(=O)/C=C/c1ccc2c(c1)OCO2 | – | inconclusive: 28.2 µM [inhibitor, partial curve] |
| Cc1ccc(C(C)C)c(OCc2ccc(C(=O)N/N=C/c3ccc(C(=O)O)cc3)cc2)c1 | – | inconclusive: 39.8 µM [inhibitor, single point] |
| CN(C)S(=O)(=O)c1ccc(NC=C(C#N)C#N)cc1 | – | inconclusive: 39.8 µM [inhibitor, single point] |
| CCN(Cc1ccccc1)C(=S)Nc1cc(C(=O)OC)ccc1C(=O)OC | – | inconclusive: 28.2 µM [inhibitor, partial curve] |
| CCCNC(=O)C1CCN(S(=O)(=O)c2ccc3nc4c(c(C(=O)O)c3c2)CCCCC4)CC1 | inactive: -3.34% | – |
| O=C(c1ccccc1)c1ccc2nc(N3CCN(C(=O)c4ccco4)CC3)c3nncn3c2c1 | – | inconclusive: 39.8 µM [inhibitor, single point] |
| COC(=O)c1ccc(C#Cc2ccccc2)o1 | – | inconclusive: 31.6 µM [inhibitor, partial curve] |
| Cc1csc(=Nc2cccnc2)n1CC1CCCCC1 | inactive: -3.09% | – |
| Nc1ccc2c(c1)Nc1ccccc1CC2 | – | inconclusive: 28.2 µM [inhibitor, partial curve] |
| O=C(c1ccco1)N1c2ccccc2Sc2ccccc21 | inactive: -2.08% | – |
| S=C(Nc1ccc(Cl)cc1)Nc1cccc2cnccc12 | – | active: 14.1 µM |
| COc1ccc(OC)c(/C=N/NC(=O)CSc2nnc(C)n2-c2ccccc2)c1 | – | inconclusive: 28.2 µM [inhibitor, partial curve] |
| N#Cc1nc(-c2ccc(Cl)cc2)oc1NCc1cccc2c1OCO2 | – | inconclusive: 15.8 µM [inhibitor, partial curve] |
| O/N=C1\CC/C(=N\O)c2nn(-c3ccccc3Cl)nc21 | inactive: -1.86% | – |
| Cc1ccc(-n2c3c(cc(C(=O)NC4CCSC4=O)c2=O)C(=O)CCC3)cc1 (centres undefined) | – | inconclusive: 31.6 µM [inhibitor, single point] |
| CC(=O)NS(=O)(=O)c1ccc(N2C(=O)c3ccccc3C2=O)cc1 | – | inconclusive: 3.55 µM [inhibitor, partial curve] |
| Cc1ccc(SCC(=O)NC(C)(C)C)cc1 | inactive: 4.49% | – |
| CCn1c(=O)c(C(=O)NCc2cccnc2)c(O)c2ccccc21 | – | inconclusive: 35.5 µM [inhibitor, single point] |
| CC(C)Cn1c2c(c(=O)[nH]c1=O)C(C(F)(F)F)(C(F)(F)F)N=C(CCC1CCCCC1)N2 | – | inconclusive: 39.8 µM [inhibitor, single point] |
| O=C(NC1CC1)C1CCCN1C(=O)NC1CCCCC1 (centres undefined) | – | inconclusive: 31.6 µM [inhibitor, single point] |
| Cc1ccc(OCCSc2nnc(NC(=O)c3ccco3)s2)cc1 | – | inconclusive: 22.4 µM [inhibitor, single point] |
| COc1ccc(CNC(=O)c2cc3c(=O)n4ccccc4nc3n(Cc3cccnc3)c2=N)cc1 | – | inconclusive: 17.8 µM [inhibitor, partial curve] |
| COc1ccc(C)cc1S(=O)(=O)N(CC(=O)N1CCOCC1)Cc1ccccc1 | inactive: 0.565% | – |

| Compound | activity change, negative = inhibition | Potency |
| --- | --- | --- |
| Cn1cc(C(=O)NCCN2CCN(c3cccc(Cl)c3)CC2)c2c3ccccc3n(C)c2c1=O | – | inconclusive: 39.8 µM [inhibitor, single point] |
| CC(C)NC(=O)c1ccccc1NC(=O)C(C)Oc1ccccc1 (centres undefined) | – | inconclusive: 39.8 µM [inhibitor, single point] |
| COc1ccccc1NS(=O)(=O)c1cc(NC(=O)c2cnccn2)ccc1N1CCOCC1 | inactive: -2.27% | – |
| O=C(CNS(=O)(=O)c1cccc2nsnc12)NC1CCCCC1 | inactive: -0.571% | – |
| O=C(NCCSC1CCCCC1)c1ccccc1 | inactive: 1.88% | – |
| CCc1cc(SC#N)ccc1N | inactive: 3.72% | – |
| CCCC(C)NC(=O)c1ccc(-c2ccccc2)cc1 (centres undefined) | inactive: 6.57% | – |
| O=C(CCn1nnc(-c2cccs2)n1)NC1CCCCC1 | – | inconclusive: 39.8 µM [inhibitor, single point] |
| CC(=O)N1CCc2cc(S(=O)(=O)NCCC(=O)N3CCN(c4ccccn4)CC3)ccc21 | inactive: -6.05% | – |
| CCc1ccc(NC(=O)CSc2nc3ccsc3c(=O)n2CCCCCC(=O)O)cc1 | inactive: 6.91% | – |
| Cc1csc(B(O)O)c1 | inactive: 14.7% | – |
| C=CCn1c(SCc2cc(=O)n3cc(C)ccc3n2)nnc1-c1ccc(F)cc1 | – | inconclusive: 7.08 µM [inhibitor, single point] |
| CCC(=O)Nc1nc2cc(OC)ccc2s1 | inactive: 5.27% | – |
| COCCOC(=O)C1=C(C)NC2=C(C(=O)CC(c3cccs3)C2)C1c1ccsc1 (centres undefined) | – | inconclusive: 28.2 µM [inhibitor, partial curve] |
| O=C(COc1ccc(Cl)cc1)NCc1nnc(SCC(=O)N2CCCC2)o1 | – | inconclusive: 39.8 µM [inhibitor, single point] |
| COC(=O)C[n+]1cccc2ccccc21 | – | inconclusive: 22.4 µM [inhibitor, partial curve] |
| CN1C(=O)CC(c2ccco2)Sc2ccccc21 (centres undefined) | inactive: 0.553% | – |
| C#CCNC(=O)C1=C[C@H](c2ccc(C(F)(F)F)cc2)C[C@H](OCCCCO)O1 | – | inconclusive: 25.1 µM [inhibitor, single point] |
| O=C(CSc1nn(-c2ccc(Cl)cc2)c(=S)s1)N1CCN(C(=O)c2ccco2)CC1 | inactive: -12% | – |
| CCNC(=O)NC(=O)COC(=O)c1ccccc1SCC(=O)NC(=O)NCC | inactive: -5.49% | – |
| Cn1c(C(=O)Nc2ccc3c(c2)OCCO3)cc2c(=O)n(C)c3ccccc3c21 | – | inconclusive: 35.5 µM [inhibitor, single point] |
| O=C(Oc1ccc[nH]c1=O)c1cccc(Cl)c1 | – | inconclusive: 20 µM [inhibitor, partial curve] |
| CCc1ccc(N(C(=O)c2snc(C(N)=O)c2N)C(C(=O)NCCC(C)C)c2c[nH]c3ccccc23)cc1 (centres undefined) | inactive: -23.3% | – |
| CC(=O)Cc1nsc(NC(=O)c2ccc(-c3ccc(Cl)c(C(F)(F)F)c3)o2)n1 | – | inconclusive: 31.6 µM [inhibitor, single point] |
